Test results published in PubChem BioAssay AID651820 (National Center for Advancing Translational Sciences (NCATS), 2012).
About 12,000 (3.5%) of roughly 340,000 compounds were called active. Inconclusive results, whose numbers are uncertain, are shown with a selection of clear calls. Calls come from the whole dose curve; as a rule, active = well fitted inhibition curve with a large enough effect; inconclusive = small, poorly fitted or top-dose-only effect, or another doubt; inactive = no such curve, though single readings can be large or run the other way. No potency is given beside an inconclusive call; the fits are too rough.
% is set by controls: 0 for no effect and ±100 for the full control effect; potency is the fitted concentration of half-maximal effect; tags give direction and shape of the fitted curve.

Assay: qHTS Assay for Inhibitors of Hepatitis C Virus (HCV)
Settings: Huh7.5.1 HCVcc-Cre (HCVcc is cell-culture hepatitis C virus) infection, luciferase reporter, 44 h; activity change, negative = inhibition: at 41.8 µM (top of the series)
Outline: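 Reporter virus HCVcc-Cre (~0.5 moi) infects cells exposed to compound; seeding density 1,000 cells/well with 4 h settling beforehand. Luminescence, 15 sec read, taken 44 h post-infection following a 15 min RT substrate incubation.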
With `COc1ccccc1C(CC(=O)Nc1ccc(C)c(C)c1)c1ccc(OC(C)C)cc1` (stereo unspecified) the Potency was inconclusive [inhibitor, partial curve]. In the case of `NC(=O)c1cc(NC(=O)c2cc(Br)c(Br)s2)cc(C(N)=O)c1`, the “activity change, negative = inhibition” value is reported as inactive: 15.6%. In the case of `CSCc1cc(N2CCOCC2)nc(SCc2ccc(Cl)c(Cl)c2)n1`, the Potency is reported as inconclusive [inhibitor, single point]. With `COC(=O)c1cc(OC)c(OC)cc1NC(=O)CSc1ccc(C)cc1` the Potency was inconclusive [inhibitor, partial curve]. With `CC1CCN(S(=O)(=O)c2ccc(C(=O)Nc3nnc(-c4ccncc4)o3)cc2)CC1` the Potency was inconclusive [inhibitor, single point]. With `O=C1/C(=C/c2cccnc2)SC(=S)N1CC1CCCO1` (stereo unspecified) the “activity change, negative = inhibition” value was inactive: -8.68%. With `C/C=C(\C)C(=O)NCCN1C2=NC[C@H](Cc3ccccc3)N2C[C@@H]1Cc1ccc(OC)cc1` the “activity change, negative = inhibition” value was inactive: 11.6%. For `COc1cc(C(=O)Nn2c(CC(C)C)nc3ccccc3c2=O)cc(OC)c1OC`, the “activity change, negative = inhibition” value was inactive: -5.06%. In the case of `CCc1nn(CC(=O)Nc2ccc(Br)c(C)c2)c(=N)s1`, the Potency is reported as inconclusive [inhibitor, full curve, poor fit]. In the case of `CN(C)c1nc(Nc2ccccc2)nc(Oc2ccc(=O)[nH]n2)n1`, the “activity change, negative = inhibition” value is reported as inactive: -8.76%. In the case of `O=c1cc(C(F)(F)F)[nH]c2c(OC(F)(F)F)cccc12`, the “activity change, negative = inhibition” value is reported as inactive: 11.3%. For `c1ccc2c3c([nH]c2c1)C1(CCNCC1)NCC3`, the Potency was inconclusive [inhibitor, single point]. For `CN(C)c1nc(N)nc(CSc2nnnn2-c2ccc(F)cc2)n1`, the Potency was inconclusive [inhibitor, single point]. In the case of `CCC1CCCCN1C(=O)C1CC(c2cc(Cl)c(OC)cc2OC)=NO1` (stereo unspecified), the “activity change, negative = inhibition” value is reported as inactive: 2.81%. For `COC(=O)c1ccccc1S(=O)(=O)N1CCC(C(=O)N(C)CCOc2ccccc2)CC1`, the activity change, negative = inhibition was inconclusive: -78.5% [inhibitor]. With `Cc1ccc(C)c(N(CC(=O)NC(C)C)C(=O)CCC(=O)Nc2ccccn2)c1` the “activity change, negative = inhibition” value was inactive: -1.47%. In the case of `CCOc1ccc(NC(=O)c2cc3ccccc3cc2OC)cc1`, the Potency is reported as active: 10 µM. For `CCOc1nc(N2CCOCC2)nc(N2CCOCC2)n1`, the Potency was inconclusive [inhibitor, single point]. With `O=C(C[n+]1cc(-c2ccc(F)cc2)n2c1CCC2)Nc1nc(-c2ccccc2)cs1` the Potency was inconclusive [inhibitor, partial curve]. With `CCOc1ccc(CNC(=O)c2nnc(CS(=O)(=O)c3ccccc3)o2)cc1OC` the Potency was inconclusive [inhibitor, partial curve]. In the case of `N=C1C(=O)OCC1c1cc(Cl)ccc1NC(=O)Nc1ccccc1` (stereo unspecified), the Potency is reported as inconclusive [inhibitor, full curve].
